Assay results reported in PubChem BioAssay (NCATS).
The other results are listed elsewhere or left out. These are further read-outs of the screen, such as a control signal, another cell line or another target. No call is given for them. Compounds called inactive in the main read-out are mostly missing here. Words in brackets tell the shape of the fitted curve; partial curves, single points and poor fits give uncertain potencies.

Assay: qHTS Assay for Lipid Storage Modulators (AID 1519)
Conditions: Drosophila S3 cells, BODIPY lipid droplet/cell ratio, laser cytometry, cells loaded with oleic acid
Outline: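 Cells seeded at 5,000 per well were treated with compounds over a concentration series and loaded with oleic acid (400 uM, as added). Lipid droplet fluorescence (488 nm excitation, 500-530 nm channel) was read by laser-scanning cytometry and normalized to 20 uM Triacsin C.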

[1] = measured here: cell count channel max response
[2] = measured here: lipid (BODIPY) channel AC50
[3] = measured here: lipid channel max response
[4] = measured here: cell number channel AC50
Tags tell the direction and shape of the fitted curve.

| Compound | max response [1] | AC50 [2] | max response [3] | AC50 [4] |
| --- | --- | --- | --- | --- |
| COc1ccccc1CCn1c(=O)c(-c2cccc(Cl)c2)nc2cncnc21 | 14.7% | 224 nM [rising, full curve, poor fit] | 21.5% |  |
| CC(=O)N1CCC2(CCN(Cc3ccc(C#N)cc3)CC2)CC1 | 4.89% |  | 6.17% | 3160 nM [rising, partial curve, poor fit] |
| COCCn1c(=O)c(-c2cccs2)nc2cncnc21 | 26.5% | 1780 nM [rising, partial curve] | 37.1% |  |
| OCCN1CC(O)C(O)C(O)C1CO (stereo not drawn) | 20.7% | 39800 nM [rising, single point] | 35.5% |  |
| O=C(Nc1ccccc1)N1CC2(CCN(C(=O)c3cc(C(F)(F)F)cc(C(F)(F)F)c3)CC2)C1 | 21.6% | 5010 nM [rising, partial curve, poor fit] | 32.2% |  |
| c1ccc2c(c1)CN1CCCC1=N2 | 22.4% | 12600 nM [rising, partial curve, poor fit] | 31.9% |  |
| COc1ccc(-c2nc3cnc(N4CCNCC4)nc3n(Cc3cccc(OC)c3)c2=O)cc1 | -8.14% | 2240 nM [rising, partial curve, poor fit] | -15.6% |  |
| O=S(=O)(c1ccccc1)N1CCC2(CCCN(C(c3ccccc3)c3ccccc3)C2)CC1 | 18.6% | 10000 nM [rising, partial curve, poor fit] | 31.8% |  |
| CN1CCN(c2ncc3nc(-c4ccccc4)c(=O)n(Cc4ccc(F)cc4)c3n2)CC1 | 8.6% | 5620 nM [rising, partial curve, poor fit] | 1.11% |  |
| c1ccc(CNc2ncncc2-c2ccoc2)cc1 | 31.4% | 1580 nM [rising, full curve, poor fit] | 35% |  |
| CN(C)c1ncc2nc(-c3cc(F)cc(F)c3)c(=O)n(Cc3ccc(F)cc3)c2n1 | 23.7% | 794 nM [rising, full curve, poor fit] | 30.7% |  |
| CC(C)(C)c1ccc([C@@H](O)CCCN2CCC(C(O)(c3ccccc3)c3ccccc3)CC2)cc1 | -29.4% | 15800 nM [falling, single point] | -54.2% |  |
| CC(=O)OC(C)(C)C1Cc2cc3ccc(=O)oc3cc2O1 (stereo not drawn) | 10.5% | 4470 nM [rising, full curve, poor fit] | 19% |  |
| Cc1nc2cnc(Oc3ccccc3)nc2n(CCC#N)c1=O | 29.6% | 891 nM [rising, full curve] | 36.8% |  |
| COc1ccc(C(=O)N2CCC3(CC2)CCN(c2ccccn2)CC3)cc1 | 18.2% | 70.8 nM [rising, full curve, poor fit] | 32.7% |  |
| CN1CCN(c2nc(-c3ccc(N(C)C)cc3)nc3ccccc23)CC1 | 16.6% | 2820 nM [rising, full curve, poor fit] | 30.1% |  |
| O=c1c(-c2ccc(Cl)cc2)nc2cnc(N3CCOCC3)nc2n1C1CC1 | 28% | 1780 nM [rising, partial curve, poor fit] | 38.2% |  |
| N#Cc1ccc(CN2CCCC3(CCN(C(=O)c4cnccn4)CC3)C2)cc1 | 23% | 3160 nM [rising, partial curve, poor fit] | 33.1% |  |
| O=C(c1csnn1)N1CCC2(CC1)CCN(c1ccccn1)CC2 | 24.9% | 70.8 nM [rising, full curve, poor fit] | 35.7% |  |
| N#Cc1cccc(NC(=O)N2CCCC3(CCN(C(=O)c4cc(C(F)(F)F)cc(C(F)(F)F)c4)CC3)C2)c1 | 11.1% | 282 nM [rising, full curve, poor fit] | 15.7% |  |
| CCC(=O)OCC(=O)C1(OC(=O)CC)C(C)CC2C3CCC4=CC(=O)C=CC4(C)C3(Cl)C(O)CC21C (stereo not drawn) | 21.2% | 56200 nM [rising, partial curve, poor fit] | 36.8% |  |
| COc1ncc2nc(-c3ccc(F)cc3)c(=O)n(Cc3ccc(F)cc3)c2n1 | 25.9% | 355 nM [rising, full curve, poor fit] | 30% |  |
| Cc1cnc(CNc2nc(-c3cccnc3)nc3ccccc23)cn1 | 3.21% | 2510 nM [rising, partial curve] | 13.9% |  |
| O=c1c(-c2ccccc2)nc2cncnc2n1-c1ccccc1 | 25.9% | 5010 nM [rising, partial curve] | 32.9% |  |
| COCCNc1ccnc(-c2ccccc2C)n1 | 26.2% | 22400 nM [rising, single point] | 33.9% |  |
| COc1ccc(Oc2ncc3nc(C)c(=O)n(C)c3n2)cc1 | 26.7% | 141 nM [rising, full curve] | 39.7% |  |

| Compound | max response [1] | AC50 [2] | max response [3] | AC50 [4] |
| --- | --- | --- | --- | --- |
| C=C1CCC2C(CC2(C)C)C(=O)CCC1O (stereo not drawn) | 27.1% | 14100 nM [rising, partial curve, poor fit] | 31% |  |
| N[C@@H](C(=O)O)c1ccc(C(=O)O)c(O)c1 | -4.73% | 7.08 nM [falling, full curve, poor fit] | -1.16% |  |
| COCC(=O)N1CCC2(CCCN(C(=O)Nc3ccccc3)C2)CC1 | 21.7% | 355 nM [rising, full curve, poor fit] | 32.4% |  |
| COc1c(CC(=O)c2cc3c(cc2O)OC(C)(C)C(O)C3)ccc2c1C=CC(C)(C)O2 (stereo not drawn) | -9.19% | 15800 nM [falling, partial curve, poor fit] | -45.2% |  |
| COc1ccc(Nc2ncc3nc(-c4cccs4)c(=O)n(Cc4cccc(OC)c4)c3n2)cc1 | 61.8% |  | -9.61% | 15800 nM [rising, partial curve] |
| CC(C)[C@@H]1C(=O)N(S(C)(=O)=O)[C@H]2CCN(C(=O)/C=C\CN3CCCCC3)[C@@H]12 | -16.5% | 10000 nM [falling, partial curve, poor fit] | -19.3% |  |
| COc1ccc(-c2nc3cnc(N4CCOCC4)nc3n(CCC#N)c2=O)cc1 | 20.4% | 316 nM [rising, full curve, poor fit] | 26.9% |  |
| O=C(c1ccco1)N1CCC2(CC1)CCN(c1ccccn1)CC2 | 25.7% | 282 nM [rising, full curve] | 42% |  |
| Cn1c(=O)c(-c2cc(F)cc(F)c2)nc2cnc(Oc3cccc(Cl)c3)nc21 | 25.7% | 17.8 nM [rising, full curve, poor fit] | 12.9% |  |
| Nc1nc2c(ncn2C2OC(COC(=O)c3ccccc3)C(OC(=O)c3ccccc3)C2OC(=O)c2ccccc2)c(=O)[nH]1 (stereo not drawn) | -19.1% | 39800 nM [falling, single point] | -41.1% |  |
| C=C1C2CC[C@@]3(C)C(c4ccoc4)OC(=O)C[C@@]13OC1CC(OC(C)=O)C(C)(C)C(CC(=O)OC)[C@@]12C (stereo partly drawn) | -5.58% | 11200 nM [falling, partial curve] | -36.7% |  |
| CC(=O)OC1CC(OC(C)=O)[C@]2(C)C(CC(OC(C)=O)[C@@]3(C)C4=CC(=O)OC(c5ccoc5)[C@]4(C)CCC32)C1(C)C (stereo partly drawn) | -4.04% | 14100 nM [falling, partial curve] | -37.5% |  |
| c1ccc2c(N3CCNCC3)nc(-c3ccc4c(c3)OCO4)nc2c1 | 18.2% | 89.1 nM [rising, full curve, poor fit] | 32.5% |  |
| O=C(c1cnccn1)N1CCC[C@@]2(CCN(c3cccc(-c4ccccc4)c3)C2)C1 | 12% | 28.2 nM [rising, partial curve, poor fit] | 7.93% |  |
| COc1ccc(-n2c(=O)cnc3cnc(Oc4cccc(Cl)c4)nc32)cc1 | 18.5% | 10 nM [rising, full curve, poor fit] | 27.8% |  |
| OC(CCN1CCCC1)(c1ccccc1)C1CCCCC1 (stereo not drawn) | 30.2% | 35500 nM [rising, single point] | 52.5% |  |
| Cc1nc2cnc(N3CCN(C)CC3)nc2n(CCc2ccccc2)c1=O | 23.6% | 1260 nM [rising, partial curve] | 30.5% |  |
| CCCCCCCCCCCCCCCCCCc1ccc(C(=O)/C=C\C(=O)O)cc1 | 5.93% |  | -10.2% | 2510 nM [rising, partial curve, poor fit] |
| N#CCCn1c(=O)c(-c2cccc(C#N)c2)nc2cnc(Oc3cccc(Cl)c3)nc21 | -29% | 22400 nM [falling, single point] | -37.7% |  |
| COc1cc(-c2ccc(N=Nc3ccc4c(S(=O)(=O)O)cc(S(=O)(=O)O)c(N)c4c3O)c(OC)c2)ccc1N=Nc1ccc2c(S(=O)(=O)O)cc(S(=O)(=O)O)c(N)c2c1O | 83.4% | 12600 nM [rising, partial curve] | 115% |  |
| COCCn1c(=O)c(-c2ccccc2)nc2cnc(Nc3ccccc3)nc21 | 1.7% | 141 nM [rising, full curve, poor fit] | -3.81% |  |
| COc1cccc(Cn2c(=O)c(-c3cc(F)cc(F)c3)nc3cncnc32)c1 | 5.89% | 112 nM [rising, full curve, poor fit] | 6.43% |  |
| O=c1c(-c2ccccc2)nc2cncnc2n1Cc1ccccc1Cl | 24.7% | 22.4 nM [rising, full curve] | 39% |  |
| COc1cccc(Cn2c(=O)c(-c3ccc(F)cc3)nc3cncnc32)c1 | 23.2% | 20 nM [rising, full curve, poor fit] | 27.4% |  |
| O=C(c1ccco1)N1CCC[C@@]2(CCN(c3cccc(-c4ccccc4)c3)C2)C1 | 0.503% | 28.2 nM [rising, full curve, poor fit] | -13.3% |  |
